Results taken from PubChem BioAssay AID1508623 (National Center for Advancing Translational Sciences (NCATS), 2021).
In all, about 48,000 compounds went through this assay and about 450 (0.94%) were called active. Inconclusive results (about 19%) are left out. Calls follow the shape of the dose curve; as a rule, active = well fitted inhibition curve with a large enough effect; inconclusive = small, poorly fitted or top-dose-only effect; inactive = no such curve, though single readings can be large or run the other way. The list shows a part of the results.

test: Primary qHTS for Identification of Small Molecule Inhibitors of Huntingtin Promoter Activity; settings: HEK293 HTT promoter firefly luciferase reporter (activity 0% = vehicle and -100% = no light), 24 h; series mostly up to 57.5 µM; activity change, negative = inhibition: at the top concentration; also: nearly all actives have a fitted effect of over 50% in size
Method in brief: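 Quantitative HTS used concentration series of up to 57.5 uM final on HEK293 luciferase reporter cells, 24 h at 37 degrees C. Readout was Dual-Glo firefly luminescence.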

Activity change, negative = inhibition, inactive:
CCc1ccc(-n2c(-c3ccccc3)c(C)n3c4c(=O)n(C)c(=O)n(C)c4nc23)cc1 -15%, Cc1ccc(O)c(-n2nc3ccccc3n2)c1 14%, COc1cccc(N2C(=O)N(CC(=O)NCc3cccc(OC)c3OC)c3ccccc3S2(=O)=O)c1 -23.5%, CCc1ccccc1Nc1ncnc2c1nc1n2CCCC1 11.6%, COc1ccccc1N1CCN(C(=O)CCS(=O)(=O)c2cc(Br)cc3c2N(C(=O)C2CC2)CC3)CC1 -10.1%, CC(=O)O[C@H]1C[C@@H]2CC[C@@H]3[C@H](CC[C@@]4(C)[C@H]3C[C@H]([N+]3(C)CCCCC3)[C@@H]4OC(C)=O)[C@@]2(C)C[C@@H]1N1CCCCC1 14.7%, O=C(Nc1ccc(F)cc1)c1cccn1-c1nnc(N2CCCCC2)s1 1.16%, COc1ccc2oc(=O)c(C(=O)NCCc3c(C)[nH]c4ccc(Br)cc34)cc2c1 -10.6%, O=C(CSc1nnc(CNC(=O)c2ccccc2)n1-c1cccc(Cl)c1)Nc1ccccc1F -1.58%, Cc1ccc(-c2csc(/C(C#N)=C/c3ccccc3Cl)n2)cc1 36.5%, Cc1cn2c(=O)cc(COc3ccccc3NC(=O)c3ccccc3C)nc2s1 5.18%, Cc1cc(C)cc(OCC2CNC(=O)O2)c1 (stereo not given) -6.3%, O=C(NCc1cccc(F)c1)C1CCN(C(=O)c2sccc2-n2cccc2)CC1 -14.7%, O=C(Nc1cc(NC(=O)c2ccccc2Cl)ccc1Cl)c1ccccc1 -2.06%, COc1ccc(CNC(=O)c2ccc(Cn3c(=O)c4cccn4c4cccnc43)cc2)cc1OC -5.1%, CCOCCCNC(=O)NC(CCC(C)C)c1c(-n2cccc2)sc2c1CCN(C)C2 (stereo not given) -31.1%, Cc1ccc(OCC(=O)Nc2ccc(S(=O)(=O)Nc3ncccn3)cc2)c(C(C)(C)C)c1 -12.2%, CN1CCN(CCCNC(=O)c2cnn(-c3ccccc3)c2-n2cccc2)CC1 -12.6%, O=c1c2sc3ccccc3c2n(Cc2cccc(C(F)(F)F)c2)c(=O)n1Cc1ccco1 -20.8%, CC(C(O)c1ccccc1)N(C)CCOC(c1ccccc1)c1ccccc1 (stereo not given) -25.6%, CC(C)(C)C(=O)CSc1nc2ccsc2c(=O)n1Cc1ccccc1F -15.1%, Cc1ccc(C)c(-c2nc(Cn3c(=O)cc(-c4ccccc4)c4c(C)nn(C)c43)c(C)o2)c1 -22.9%, Cc1cccc(NC(=O)C2CCCN(S(=O)(=O)c3cccc4nonc34)C2)c1C (stereo not given) -19.3%, Cc1cc2oc(=O)c(CC(=O)NCCc3ccccc3)c(C)c2c2occ(C(C)(C)C)c12 1.47%, Cc1cccc(N2CCN(C(=O)c3cn(C4CCCCC4)c(=O)c4c3c3ccccc3n4C)CC2)c1C -27.8%, COc1cc2c(cc1NC(=O)COc1cc(C)ccc1C)oc1ccccc12 -14.1%, Cc1cc(C(=O)O)c2c(=O)n(C)c(=O)n(C)c2n1 1.49%, COc1ccc(-c2cn3c(n2)sc2cc(C(=O)NC4CCCc5ccccc54)ccc23)cc1 (stereo not given) -9.32%, CCN(Cc1ccccc1)Cc1c(O)ccc2c(=O)c(-c3ccccc3OC)c(C(F)(F)F)oc12 -23.4%, Cc1cccc(OCCSc2nc3ccccc3n2CC(=O)N2CCCCC2)c1C -42.3%, CC(=O)Nc1nonc1-c1nnc(SCC(=O)Nc2ccc(F)cc2F)n1-c1ccccc1 3.61%, Cc1ccc(Cn2c(CNS(=O)(=O)c3c(C)cc(C)cc3C)nc3cccnc32)cc1 -22.3%, Cc1c(C)n(Cc2ccccc2)c2ccc(C(=O)NC(C)c3ccccc3)cc12 (stereo not given) 5.93%, CCOC(=O)N1CCN(S(=O)(=O)N2CCCC(C(=O)NCc3cc(OC)ccc3OC)C2)CC1 (stereo not given) -22.7%, COc1ccc(N2CC(NC(=O)/C=C\c3ccc(OC)c(OC)c3)CC2=O)cc1 (stereo not given) 1.43%, Cc1nc(CC(=O)Nc2ccc(C)c(C)c2)cs1 19.7%, CCn1ccc2cc(S(=O)(=O)N3CCCN(C(=O)Nc4ccccc4OC)CC3)ccc21 -24.6%, COc1ccc(N2CCN(C(CNC(=O)CC(C)C)c3ccc4c(c3)OCO4)CC2)cc1 (stereo not given) -8.44%, CCc1cccc(CC)c1NC(=O)Cn1nnc2sc(-c3ccccc3)cc2c1=O 5.54%, Cc1ccc(-c2nc3ccc(Cl)cn3c2Nc2ccc3c(c2)OCCO3)o1 32.7%, COc1ccc(-c2nc(CS(=O)CC(=O)NCc3ccc(F)cc3)c(C)o2)cc1OC (stereo not given) -9.28%, CCCCOc1ccc(C2=NC(c3ccncc3)=Nc3ccc(Br)cc3N2)cc1 -18.3%, CCCCCC(=O)O[C@]1(C(C)=O)CC[C@H]2[C@@H]3CCC4=CC(=O)CC[C@]4(C)[C@H]3CC[C@@]21C -24.6%, COc1ccc(OCC(=O)Nc2ccc(C(=O)OCc3cc(=O)n4nc(C)sc4n3)cc2)cc1 -20.9%, Cc1c(Cl)cccc1-n1ncc(C(=O)N2CCc3ccccc3C2)c1C1CCN(C(=O)OC(C)(C)C)CC1 -12.7%, Cc1ccc(NC(=O)c2oc3ccccc3c2NC(=O)Cc2cccs2)cc1 9.82%, CCOc1ccccc1NC(=O)Nc1nnc(N(C)Cc2ccccc2)s1 38.3%, COc1ccccc1NC(=O)CCS(=O)(=O)c1ccc2nc(C)sc2c1 -1.59%, CC(=O)N1CCC(N(C(=O)Nc2ccc(C)c(F)c2)C(C)C)CC1 51.8%, Cc1ccccc1NC(=O)c1c(NC(=O)C(C)Oc2cccc(Cl)c2)sc2c1CCCC2 (stereo not given) -16.9%, O=C(CCn1cnc2onc(-c3ccc(F)cc3)c2c1=O)N1CCN(c2ccc(F)cc2)CC1 -13%, CCn1c(C(=O)N2CCCC(C(=O)NCCCOC)C2)cc2sccc21 (stereo not given) -22.2%, COc1ccccc1CNC(=O)CC1N=C2c3ccccc3N=C(SCC(=O)Nc3ccc(F)cc3)N2C1=O (stereo not given) 0%, COc1cc(NC(=O)c2c(-c3ccc(C)cc3)nnc3ccccc23)cc(OC)c1OC 2.57%, Cc1oc2c(c1C(=O)Nc1cccc(Br)c1)C1=NCCN1C=N2 -5.02%, O=C(Cn1nc(-c2ccccc2)ccc1=O)NCc1ccc(F)cc1Cl -8.67%, O=C(c1nc(-c2ccc(Cl)cc2)n2c1CCCCC2)N1CCN(c2ccccc2F)CC1 -16.1% [at 11.5 µM], CC(=O)Nc1ccc(NC(=O)CCCc2nc(-c3ccc(C(C)(C)C)cc3)no2)cc1 -88.7%, CCOc1cc(C(=O)Nc2ccc3oc(-c4ccc(F)cc4Cl)nc3c2)cc(OCC)c1OCC -2.84%, Cc1ccc(NC(=O)c2cc(C)nn2-c2ccccc2)cc1 -0.248%
